PubChem BioAssay AID1347073 (National Center for Advancing Translational Sciences (NCATS), 2019)
Screen size: about 45,000 compounds; about 200 (0.44%) were called active. About 7% were inconclusive and are not listed. The call rests on the fitted dose curve; in most records, active means well fitted activation curve with a large enough effect; inconclusive means small, poorly fitted or top-dose-only effect; inactive means no such curve, though single readings can be large or run the other way. The list shows a part of the results.

Assay: qHTS of TDP-43 Inhibitors: NCGC Sytravon Library Screen; further: 0% is about no effect; nearly all actives have a fitted effect of over 55% in size
Conditions: yeast TDP-43 toxicity rescue, BacTiter-Glo growth, 24 h; series mostly up to 46.1 µM; growth rescue (activation): at the top concentration
Procedure, shortened: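 TDP-43-expressing yeast, pregrown in raffinose, seeded at OD600 0.02 in galactose medium with compound for 24 hr at 30 deg C. Growth read by BacTiter-Glo luminescence, so rescue of toxicity appears as activation.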

Row | SMILES | growth rescue (activation)
1 | CC1CC(C)CN(CC(=O)c2c[nH]c3ccccc23)C1 (stereo not drawn) | inactive: 11.7%
2 | Cc1ccc(C(=O)NC2CCN(C(=O)Nc3ccccc3)CC2)cc1 | inactive: -7.52%
3 | O=C(CCn1cnnn1)Nc1ccc(F)cc1 | inactive: 0.0189%
4 | Cc1ccc(CNC(=O)c2coc(=O)c3ccccc23)o1 | inactive: 41.1%
5 | Cc1ccc(-c2ccc(S(=O)(=O)N3CCCC3)cc2)cc1 | inactive: 6.66%
6 | COc1ccccc1/C=C1\SC(=S)N(CCC(=O)Nc2cc(C)on2)C1=O | inactive: 16.9%
7 | CSc1ccccc1Sc1cc(C(=O)O)c2ccccc2n1 | inactive: 18.7%
8 | O=c1[nH]c(CN2CCN(S(=O)(=O)c3ccc(Cl)cc3)CC2)nc2cc(Cl)ccc12 | inactive: 15.1%
9 | COc1ccc(C(NC(=O)C(C)C)c2ccc3cccnc3c2O)cc1 (stereo not drawn) | inactive: -37.2%
10 | CCc1nc2ccccc2n1CC(=O)Nc1cc(C)on1 | inactive: -9.18%
11 | CCN(CC)C(=O)c1cccc(-c2csc(C(O)c3ccc(F)cc3)n2)c1 (stereo not drawn) | inactive: 10.7%
12 | COc1ccc(OC)c(NC(=O)CN(C)CCOc2ccc(Br)cc2)c1 | inactive: -14.4%
13 | CCCCCn1c(=O)c(-c2nc3ccccc3[nH]2)c(O)c2ccccc21 | inactive: 3.4%
14 | Cc1nc(SCC(=O)O)c(C#N)c(C)c1CC(=O)c1ccccc1 | inactive: 0.296%
15 | Cn1c(NCCOc2ccccc2Cl)nc2cc(-c3ccc(F)cc3)sc2c1=O | inactive: 5.88%
16 | COc1cc(CNc2ccc3c(c2)OCCO3)ccc1OCC(N)=O | inactive: 7.79%
17 | Cc1cc(OCC(=O)NCCN2CCOCC2)cc(C)c1Cl | inactive: -2.82%
18 | CC(=O)c1cccc(NC(=O)CSc2nnc(C(C)N(C)C)n2-c2ccc(F)cc2)c1 (stereo not drawn) | inactive: 23.5%
19 | CC(=O)Nc1ccc(S(=O)(=O)NCCCN2CCOCC2)cc1 | inactive: -13.4%
20 | N#C/C(=C\c1cn(Cc2ccc(F)cc2)c2ccccc12)C(=O)NCc1ccco1 | inactive: -8.13%
21 | COc1ccc(-c2cc(C(F)(F)F)nc(-n3ccnc3)n2)cc1 | inactive: 3.3%
22 | O=C(N/N=C/c1ccccn1)c1cccs1 | inactive: -7.34%
23 | Cc1noc(C)c1S(=O)(=O)NC(=O)C1(C)CCN1C(=O)Cc1ccc(-c2ccccc2)cc1 (stereo not drawn) | inactive: 20.4%
24 | Cc1cc(C(=O)NC(=S)Nc2cccc(NC(=O)C(C)C)c2)ccc1[N+](=O)[O-] | inactive: -25.8%
25 | COc1ccc2c(C)cc(SCC(=O)Nc3nsc(-c4ccccc4C)n3)nc2c1 | inactive: 4.55%
26 | CC(C)OC(=O)CN1C(=O)c2ccccc2C1=O | inactive: -9.43%
27 | CC(C)CC(N=Cc1c(O)c2ccccc2oc1=O)C(=O)O (stereo not drawn) | inactive: 1.7%

Row | SMILES | growth rescue (activation)
28 | COc1ccc(/C=N/Nc2nnc(Cc3ccccc3)c(=O)[nH]2)cc1 | inactive: 1.92%
29 | Cc1cccc(Nc2nc(CC(=O)O)cs2)c1 | inactive: 11.7%
30 | S=C(NCCc1c[nH]c2ccccc12)NC1CCCC1 | inactive: 6.11%
31 | COc1ccccc1Nc1nnc(SCc2nnc(-c3cc(OC)c(OC)c(OC)c3)o2)s1 | inactive: 2.59%
32 | Cc1ccccc1C(=O)NNS(=O)(=O)c1cccc([N+](=O)[O-])c1 | inactive: 7.52%
33 | COC(=O)C1=C(C)NC(C)=C(C(=O)OC)C1C(=O)OC(C)C(=O)c1ccccc1 (stereo not drawn) | inactive: 4.13%
34 | Cc1ccccc1NC(=O)C(C)Sc1nnc(-c2ccncc2)n1CC1CCCO1 (stereo not drawn) | inactive: -19.4%
35 | COc1cccc(NC(=S)N2CCCC2c2ccc(OC)c(OC)c2)c1 (stereo not drawn) | inactive: 9.5%
36 | CCOP(=O)(c1ccc(N(C)C)cc1)C(O)c1ccc(OC)cc1 (stereo not drawn) | inactive: 0.471%
37 | COC(=O)c1c(-c2ccccc2Cl)noc1-c1cnc(N)nc1C(F)(F)F | inactive: 9.01%
38 | COc1ccccc1C(=O)Nc1ccc(S(=O)(=O)NC2=NCCCCC2)cc1 | inactive: 14.5%
39 | O=C(OC1CCOC1=O)c1ccc(N2CCCC2)c([N+](=O)[O-])c1 (stereo not drawn) | inactive: 15.2%
40 | O=C(CCCSc1ccccc1)Nc1cccc(CO)c1 | inactive: 13.8%
41 | Cc1ccc(C)c(N(C(=O)CNC(=O)c2ccco2)C(C(=O)NC2CCCCC2)c2ccncc2)c1 (stereo not drawn) | inactive: 1.86%
42 | O=C(Nc1ccc(S(=O)(=O)N2CCCC2)cc1)c1cnccn1 | inactive: 3.94%
43 | CCOC(=O)/C(C#N)=C/c1cn(CCC(=O)O)nc1-c1ccccc1 | inactive: 8.06%
44 | CCc1nnc(NC(=O)c2c(-c3ccccc3)noc2C)s1 | inactive: 0.663%
45 | COc1ccccc1OCc1ccc(C(=O)NC(C)(C)C)o1 | inactive: 21.5%
46 | CC(=O)c1cccc(-c2ccnc3c2CC(C(=O)N2CCN(C)CC2)O3)c1 (stereo not drawn) | inactive: -1.46%
47 | Cc1csc(NC(=O)c2sccc2C)n1 | inactive: 8.87%
48 | O=C1COc2ccc(S(=O)(=O)Nc3ccc4c(c3)OCO4)cc2N1 | inactive: 0.397%
49 | O=C(CCN1C(=O)C2C3C=CC(C4CC34)C2C1=O)Oc1ccc(Br)cc1 (stereo not drawn) | inactive: -4.01%
50 | O=C(CC1SC(=O)N(Cc2ccccc2Cl)C1=O)Nc1nccs1 (stereo not drawn) | inactive: 28.8%
51 | CCCCN(CCCC)CCNC(=O)c1ccc2nc(-c3ccccc3NC(C)=O)c(=O)[nH]c2c1 | inactive: 1.59%
52 | Cc1cc(=O)[nH]c(SC(C)C(=O)Nc2cccc3ccccc23)n1 (stereo not drawn) | inactive: -7.48%
53 | CCN(c1ccccc1)S(=O)(=O)c1ccc(OC)c(NC(=O)CNCC(C)O)c1 (stereo not drawn) | inactive: 2.43%
